Reference: a collection of fitness landscapes (doi:10.1016/j.celrep.2020.107928)
The full ranking holds about 81,000 sequences; the median of “one-hybrid fitness for binding NBS DNA” is about -0.1, and the highest 2% start at about 0.36. The list shows a part of the results.

B1: Caulobacter ParB omega fusion; a variant is named by its letters at X, in order, B8GW30 (parent)
chain: MESVVVGEPGMSEGRRGLGRGLSALLGEVDAAPAQAPGEQLGGSREAPIEILQRNPDQPRRTFREEDLEDLSNSIREKGVLQPILVRPSPDTAGEYQIVAGERAWRAAQRAGLKTVPIMVRELDDLAVLEIGIIENVQRADLNVLEEALSYKVLMEKFERTQENIAQTIGKSXSHVANXMRLLXLPDEVQSYLVSGELTAXHARAIAAAADPVALAKQIIEGGLSVRETEALARKAPNLSAGKSKGGRPPRVKDTDTQALESDLSSVLGLDVSIDHRGSTGTLTITYATLEQLDDLCNRLTRGI

Variants of: B1
Assay: one-hybrid fitness for binding NBS DNA (the Noc-binding site; scaled: cognate 1, non-cognate 0); higher = stronger binding
Conditions: with NBS DNA site
Outline: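 On M9-minus-histidine containing 0.1 mM IPTG and 5 mM 3-AT, E. coli USO cells with a HIS3 reporter, site 19 bp from the promoter, grew 48 hours at 37°C to select Caulobacter ParB libraries randomised at four specificity codons. Plasmids from before and after were Illumina-sequenced, with three replicate libraries pooled and variants under 10 reads left out. Fitness is the log change in variant-to-wild-type read ratio, rescaled against cognate and non-cognate.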

Variant | one-hybrid fitness for binding NBS DNA
LILF | ≤ 0.2
HHVG | ≤ 0.2
TAEV | ≤ 0.2
IREN | ≤ 0.2
RICM | ≤ 0.2
NQTE | ≤ 0.2
ERYR | ≤ 0.2
TCHE | ≤ 0.2
IVGR | ≤ 0.2
SYNQ | ≤ 0.2
MVEF | ≤ 0.2
AMWM | ≤ 0.2
VDEY | ≤ 0.2
QRKR | 1.08
RSNA | 0.21
KERF | ≤ 0.2
AKTQ | ≤ 0.2
LNEG | ≤ 0.2
DGCR | ≤ 0.2
KQYT | ≤ 0.2
TSKM | ≤ 0.2
TPYG | ≤ 0.2
LREP | ≤ 0.2
DFFL | ≤ 0.2
HWTQ | ≤ 0.2

Variant | one-hybrid fitness for binding NBS DNA
CKRH | ≤ 0.2
TLLL | ≤ 0.2
YYET | ≤ 0.2
EPVY | ≤ 0.2
HESC | ≤ 0.2
QWVS | ≤ 0.2
TVGA | ≤ 0.2
MYKS | ≤ 0.2
LEET | ≤ 0.2
FKHA | ≤ 0.2
YHRT | ≤ 0.2
QGKH | ≤ 0.2
IIYW | ≤ 0.2
SITT | ≤ 0.2
LTSE | ≤ 0.2
HVGY | ≤ 0.2
ISSE | ≤ 0.2
RSKI | ≤ 0.2
CHCS | ≤ 0.2
SAAQ | ≤ 0.2
CRMW | ≤ 0.2
AIIG | ≤ 0.2
SGMY | ≤ 0.2
SLEW | ≤ 0.2
PLNV | ≤ 0.2

Variant | one-hybrid fitness for binding NBS DNA
TTWC | ≤ 0.2
QITP | ≤ 0.2
GSNG | ≤ 0.2
FVHR | ≤ 0.2
MATG | ≤ 0.2
AHER | ≤ 0.2
SRYS | ≤ 0.2
CTTH | ≤ 0.2
IVAG | ≤ 0.2
QCND | ≤ 0.2
DDPK | ≤ 0.2
CGST | ≤ 0.2
PGEH | ≤ 0.2
NEKT | ≤ 0.2
LTDK | ≤ 0.2
VIQR | ≤ 0.2
TWFS | ≤ 0.2
TLNG | ≤ 0.2
EVRW | ≤ 0.2
RLVT | 0.236
SECG | ≤ 0.2
AQER | ≤ 0.2
ISHF | ≤ 0.2
RKDS | 0.412
AQDF | ≤ 0.2

Variant | one-hybrid fitness for binding NBS DNA
CYQS | ≤ 0.2
DGTV | ≤ 0.2
PCQP | ≤ 0.2
GSMS | ≤ 0.2
TDKI | ≤ 0.2
QRPC | ≤ 0.2
TKIR | ≤ 0.2
AGLE | ≤ 0.2
PQQG | ≤ 0.2
MIDT | ≤ 0.2
ASYY | ≤ 0.2
MHIG | ≤ 0.2
GRVT | ≤ 0.2
ARYA | ≤ 0.2
CRMG | ≤ 0.2
YTCL | ≤ 0.2
EERS | ≤ 0.2
LDTQ | ≤ 0.2
DGND | ≤ 0.2
SLFT | ≤ 0.2
CNMR | ≤ 0.2
KSEW | ≤ 0.2
HRTT | ≤ 0.2
